Data reported in PMC4336329 (PLoS ONE, 2015).
The campaign covered roughly 310,000 compounds. About 14,000 (4.5%) showed an effect of 50% or more. The effect is printed as a negative number. The list shows a part of the results.

The molecules below were run against human ether-à-go-go-related gene (hERG) potassium channel (human, UniProt Q12809) (assay: primary screen, population patch clamp on CHO cells stably expressing hERG).
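Note: peak tail current of the secondary pulse compared with the same well before compound.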

human ether-à-go-go-related gene (hERG) potassium channel, sequence (Q12809 whole entry, looked up): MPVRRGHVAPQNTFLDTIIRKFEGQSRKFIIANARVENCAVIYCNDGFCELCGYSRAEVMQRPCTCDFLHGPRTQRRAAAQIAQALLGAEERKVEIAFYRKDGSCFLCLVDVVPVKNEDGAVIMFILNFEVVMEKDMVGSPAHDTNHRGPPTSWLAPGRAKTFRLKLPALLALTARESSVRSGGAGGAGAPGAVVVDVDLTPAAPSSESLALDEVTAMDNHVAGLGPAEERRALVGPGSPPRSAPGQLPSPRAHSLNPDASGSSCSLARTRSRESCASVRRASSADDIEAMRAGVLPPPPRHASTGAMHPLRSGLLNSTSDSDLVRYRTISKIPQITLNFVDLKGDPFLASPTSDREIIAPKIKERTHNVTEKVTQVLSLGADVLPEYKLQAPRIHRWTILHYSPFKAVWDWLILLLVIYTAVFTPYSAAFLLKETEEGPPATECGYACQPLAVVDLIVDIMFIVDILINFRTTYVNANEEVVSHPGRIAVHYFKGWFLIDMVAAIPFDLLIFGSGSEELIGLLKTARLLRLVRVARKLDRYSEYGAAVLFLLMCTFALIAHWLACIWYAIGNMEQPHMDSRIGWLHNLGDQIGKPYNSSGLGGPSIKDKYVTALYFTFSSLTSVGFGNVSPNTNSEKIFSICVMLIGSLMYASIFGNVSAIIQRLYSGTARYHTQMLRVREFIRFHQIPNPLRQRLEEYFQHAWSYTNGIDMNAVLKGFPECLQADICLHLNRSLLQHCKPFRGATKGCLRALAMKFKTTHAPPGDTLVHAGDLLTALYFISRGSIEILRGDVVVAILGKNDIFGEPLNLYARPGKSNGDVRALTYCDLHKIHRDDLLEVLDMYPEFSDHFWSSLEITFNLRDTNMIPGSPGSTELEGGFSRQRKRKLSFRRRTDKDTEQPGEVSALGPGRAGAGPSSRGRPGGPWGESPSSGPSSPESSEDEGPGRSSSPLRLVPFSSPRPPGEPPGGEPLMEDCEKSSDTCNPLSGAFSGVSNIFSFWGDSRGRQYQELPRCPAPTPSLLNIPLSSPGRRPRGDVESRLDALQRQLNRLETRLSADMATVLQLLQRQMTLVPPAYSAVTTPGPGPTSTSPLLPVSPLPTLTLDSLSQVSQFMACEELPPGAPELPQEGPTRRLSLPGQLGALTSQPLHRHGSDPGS

| SMILES | hERG current change (%, negative = inhibition) at 10uM [%] |
| --- | --- |
| Cc1ccc(C(=O)Nc2cccnc2)cc1[N+](=O)[O-] | 4.19 |
| CCc1ccc(C(=O)NNC(=O)CN2C(=O)NC(CC)(c3ccccc3)C2=O)cc1 (stereo not shown) | -8.15 |
| Cc1cc(N)n(-c2ccccc2C)n1 | 23.7 |
| Cc1cc(C(=O)Nc2ccc(C)c(S(=O)(=O)N3CCOCC3)c2)c(C)o1 | -6.59 |
| Cc1ccc(N=C2C(=O)Nc3ccc(C)c(Br)c32)cc1 | 20.7 |
| CCOC(=O)c1cc(NC(=O)Nc2nccs2)c(C)nc1C | 3.76 |
| CCCN1CCC(NC(=O)Nc2cc(Cl)ccc2OC)CC1 | -19.1 |
| Cc1csc(NC(=O)CSc2nnc3ncccn23)n1 | -14.3 |
| CC1SC(=NC(=O)c2ccco2)NC1=O (stereo not shown) | -0.94 |
| CCOC(=O)C1=C(C)NC(=O)NC1c1ccc(OC)c(Cl)c1 (stereo not shown) | -16.3 |
| CC(C)C(=O)Nc1nc(-c2ccc([N+](=O)[O-])cc2)cs1 | 7.04 |
| CSCC[C@H](NC(=O)NCc1cccs1)C(=O)O | -10.4 |
| COc1ccc(CNc2ccc(Cl)cc2)cc1Cn1ccnc1 | -20.3 |
| O=C(NC(=S)N1CCOCC1)C12CCC3CC(CC(C3)C1)C2 | 16.2 |
| Cc1cc(C[n+]2ccsc2N)c2ncccc2c1.[Br-] | -48.2 |
| COc1ccc(-n2cnc3cc(C(=O)NCCN4CCOCC4)ccc32)cc1 | -23.8 |
| COc1cccc(C2C(C(=O)OC(C)C)=C(C)Nc3ncnn32)c1 (stereo not shown) | -9.09 |
| CC(C)(C)c1ccc(NC(=O)Nc2ccc(OCC(=O)N3CCOCC3)cc2)cc1 | -10.2 |
| Cc1nc2ccc(S(=O)(=O)NC(C(=O)Nc3nc4ccc(Cl)cc4s3)C(C)C)cc2s1 (stereo not shown) | 0.0384 |
| Cc1cnc(N2C(=O)c3ccc([N+](=O)[O-])cc3C2=O)s1 | 21.3 |
| Cc1occc1C(=O)Nc1nnc(-c2ccncc2)s1 | 2.12 |
| CC1=CCC(C(C)(C)NC(=O)c2ccccc2)C/C1=N\O (stereo not shown) | -12.4 |
| O=C(NNC1=NCCC1)c1cccc(S(=O)(=O)N2CCCCC2)c1 | 21.1 |

| SMILES | hERG current change (%, negative = inhibition) at 10uM [%] |
| --- | --- |
| CCOc1ccccc1-c1nc(C(N)=O)c2[nH]c(=O)n(-c3ccccc3)c2n1 | 13.4 |
| COc1cccc(NS(=O)(=O)c2ccc3c(c2)CCCN3C(C)=O)c1 | -7.1 |
| CC1CCCN(C(=O)C2(NC(=O)Nc3cccc(F)c3)CCCCC2)C1 (stereo not shown) | 6.43 |
| CCC(=O)N1CCc2cc(S(=O)(=O)NC(C(=O)NCc3ccc(C)cc3)C(C)C)ccc21 (stereo not shown) | 3.13 |
| COc1ccc(C2=NC(=O)/C(=C\c3cc(OC)c(OC)c(OC)c3)O2)cc1 | 8.26 |
| Cc1nc2nc(C)c(NS(=O)(=O)c3ccc4c(c3)CCCC4)c(=O)n2[nH]1 | 13.6 |
| O=C(CCC(=O)N1CCOc2ccc(Cl)cc21)NCCCN1CCOCC1 | 6.57 |
| CC(/C=N/NC(=O)c1ccncc1)=C\c1ccco1 | 34.7 |
| CCOC(=O)N1CCN(C(=O)/C=C/c2ccc(OC)c(OC)c2)CC1 | 8.05 |
| Cc1cccc(NS(=O)(=O)c2c(C)n[nH]c2C)c1 | -0.407 |
| Cc1ccc(C(=O)Nc2cccc([N+](=O)[O-])c2)cc1S(=O)(=O)Nc1ccc(NC(=O)c2ccccc2)cc1 | 3.23 |
| O=C(C1=C[C@@H](c2ccc(Br)cc2)C[C@@H](OCCCCO)O1)N1CCOCC1 | -15.7 |
| Cc1cc(O)c(C(C)C)cc1NC(=O)Nc1cccc2ccccc12 | 14.3 |
| CCCNC(=O)Nc1cc(OC)c(OC)cc1Cc1nccc2cc(OC)c(OC)cc12 | -10.9 |
| Cc1ccc(C(=O)CSc2ccc(-c3cccnc3)nn2)cc1 | -2.06 |
| CSc1nc2c(c(C(F)(F)F)n1)CC(C)CC2 (stereo not shown) | 20 |
| Cc1cc2c(cc1S(=O)(=O)N(C)c1ccccc1)NC(=O)CO2 | -0.364 |
| Cc1cccc2cc(CN(Cc3cccs3)S(=O)(=O)c3ccc4c(c3)OCCO4)c(=O)[nH]c12 | 1.41 |
| O=C(Nc1cc(SCCO)cc([N+](=O)[O-])c1)c1ccco1 | -16.4 |
| O=C(Nc1ccccc1Cl)c1cccc(NC(=O)C2C3CC4OC(=O)C2C4C3)c1 (stereo not shown) | -3.6 |
| CC(C)C(=O)N1CCN(CCN=CC2=C(O)CC(c3ccco3)CC2=O)CC1 (stereo not shown) | 0.717 |
| Cc1nn(-c2ccccc2)c(Cl)c1/C=N/NC(=O)c1[nH]ncc1Br | -5.51 |
| C=CCOC(=O)C1=C(C)NC2(O)c3ccccc3C(=O)C12O (stereo not shown) | 0.217 |

| SMILES | hERG current change (%, negative = inhibition) at 10uM [%] |
| --- | --- |
| CCOc1ccc(NC(=O)N2C[C@H]3C[C@@H](C2)c2cccc(=O)n2C3)cc1 | 8.54 |
| Cc1ccccc1C(=O)Oc1ccc(Cl)cc1C(=S)N1CCOCC1 | 2.16 |
| O=C(NC1CC1)C1CCN(C2CCN(C(=O)c3c(F)cccc3Cl)CC2)CC1 | 13.3 |
| CCOc1ccccc1/C=N/NC(=O)c1nnn(-c2nonc2N)c1CN1CCC(C)CC1 | 9.08 |
| CCOC(=O)C(=O)Nc1cc(Cl)ccc1C | 8.06 |
| Cc1ccc(-n2c(C)cc(C(=O)COC(=O)C3=NNC(=O)CC3)c2C)cc1 | -42.3 |
| O=C(NC1CCN(Cc2ccccc2)CC1)c1ccc(Cl)cc1Cl | -75 |
| CCOC(=O)NC1(NCc2ccccc2)Oc2ccccc2O1 | -4.1 |
| Cc1ccc(C)c(OCC(=O)Nc2ccc3c(c2)OCO3)c1 | 1.44 |
| Cn1nnnc1SCc1ccc(CSc2nnnn2C)cc1 | 9.74 |
| COC(=O)C(Cc1ccc(O)cc1)NC(=O)CCNC(=O)c1ccco1 (stereo not shown) | 18.8 |
| O=C(Cc1ccc([N+](=O)[O-])cc1)Nc1ccc2c(c1)OCO2 | -13.9 |
| CC(C)NC(=O)CC(=O)N/N=C/c1ccc(F)cc1 | -0.455 |
| COc1ccc(Oc2ccc(/C=C/C(=O)c3cccc(OC)c3)cc2[N+](=O)[O-])cc1 | -14 |
| Cc1nn(-c2ccc(F)cc2)c(C)c1/C=C/C(=O)N1CCNC(=O)C1 | 12.3 |
| C=CCNC(=S)NNC(=O)c1ccccc1 | 11.8 |
| CC1=Nn2c(nnc2-c2ccco2)SC1 | -3.87 |
| Fc1cccc(NCc2ccoc2)c1 | -7.89 |
| Cc1ccnc(NC(=O)CCC(=O)N(CC(=O)NCCc2ccccc2)Cc2cccs2)c1 | -31 |
| O=C(N/N=C/c1ccc[nH]1)c1ccc([N+](=O)[O-])cc1 | -1.95 |
| COC(=O)c1cnc(SCC(=O)c2ccccc2)n1C | 5.4 |
| O=c1[nH]c2ccc(S(=O)(=O)N3CCCC3)cc2[nH]1 | 17.6 |
| CCC(CC)c1nnc(NC(=O)CCS(=O)(=O)Cc2ccccc2)s1 | 29.5 |

| SMILES | hERG current change (%, negative = inhibition) at 10uM [%] |
| --- | --- |
| N#Cc1cccc(NC(=O)CN2C(=O)NC3(CCCCCC3)C2=O)c1 | 5.61 |
| CCOc1cc(N2CCOCC2)c(OCC)cc1NC(=O)Cn1nc(C)c([N+](=O)[O-])c1C | -7.82 |
| Oc1c(C(c2cccs2)N2CCN(c3ccccc3)CC2)ccc2cccnc12 (stereo not shown) | 7.17 |
| FC(F)(F)Oc1ccc(NC(=S)Nc2ccc(OC(F)(F)F)cc2)cc1 | 11 |
| O=C1C(Cc2ccc(Br)cc2)SC(=Nc2ccccc2)N1c1ccccc1 (stereo not shown) | 5.55 |
| COC(=O)C(C(=O)OC)c1ncccc1[N+](=O)[O-] | -10.9 |
| CC(C)NC(=O)C1c2ccccc2Oc2ccccc21 | 16.7 |
| COC(=O)C(Cc1ccc(O)cc1)NC(=O)NC12CC3CC(CC(C3)C1)C2 (stereo not shown) | 2.61 |
| Cl.O=C(O)CCNc1nc(-c2ccccc2)nc2ccccc12 | 2.17 |
| COCCNC(=O)c1ccc(CN2CCc3ccccc3C2)cc1 | 10.8 |
| O=C(CSc1nc2c(sc3ccccc32)c(=O)n1CCc1ccccc1)NCc1ccco1 | -8.32 |
| CCN(CC)CC(O)COCCC12CC3CC(CC(C3)C1)C2.Cl (stereo not shown) | -31 |
| COc1ccc(CCN=C(N)C(C)c2ccccc2)cc1OC.Cl (stereo not shown) | 11.4 |
| Cc1ccc(S(=O)(=O)N(C(=O)c2ccncc2)c2ccc(OC(=O)c3ccncc3)cc2)cc1 | -33.2 |
| COc1cc(C(=O)N2CCc3ccccc32)cc(OC)c1OC | 3.67 |
| Cc1ccc(C(=O)Nc2cccc(Oc3ccccc3)c2)o1 | -29 |
| CO/N=C/c1ccc(Oc2ccc(C)cc2)nc1 | 11.1 |
| Cn1c(SCC(=O)N/N=C/c2ccncc2)nc2ccccc21 | -7.69 |
| CC(C)c1ccccc1OCC(=O)Nc1ccccc1C(=O)N1CCOCC1 | -30.4 |
| CN1C(=O)CS(=O)c2ccc(C(=O)NCCC3=CCCCC3)cc21 (stereo not shown) | 6.39 |
| CCN(CC)CCNC(=O)CCN1N=C(c2ccccc2)CCC1=O | 14.1 |
| Cc1ccc(C)c(NC(=O)C2C3C=CC(O3)C2C(=O)O)c1 (stereo not shown) | 15.4 |
